# Substitutions are numbered along the chain they refer to.
# T1: human IL-1R-I (RnD Systems cat. no. 269-1R/CF) (human, UniProt P14778 18-332, limits assumed)
# T1 construct: bought protein; also called hIL-1R-I; hIL-1RI
# T1 sequence (looked up): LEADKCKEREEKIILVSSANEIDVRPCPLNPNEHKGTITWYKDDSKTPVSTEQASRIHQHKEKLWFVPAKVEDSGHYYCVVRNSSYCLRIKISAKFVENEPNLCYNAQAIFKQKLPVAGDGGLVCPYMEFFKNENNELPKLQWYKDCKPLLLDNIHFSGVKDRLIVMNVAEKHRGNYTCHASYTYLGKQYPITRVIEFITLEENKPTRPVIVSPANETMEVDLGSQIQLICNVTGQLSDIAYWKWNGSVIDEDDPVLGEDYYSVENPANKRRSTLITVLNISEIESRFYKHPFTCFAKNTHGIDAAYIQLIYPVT
# T2: IL-1R-I on TF-1 cells (UniProt P14778 18-569, limits assumed)
# T2 sequence (looked up): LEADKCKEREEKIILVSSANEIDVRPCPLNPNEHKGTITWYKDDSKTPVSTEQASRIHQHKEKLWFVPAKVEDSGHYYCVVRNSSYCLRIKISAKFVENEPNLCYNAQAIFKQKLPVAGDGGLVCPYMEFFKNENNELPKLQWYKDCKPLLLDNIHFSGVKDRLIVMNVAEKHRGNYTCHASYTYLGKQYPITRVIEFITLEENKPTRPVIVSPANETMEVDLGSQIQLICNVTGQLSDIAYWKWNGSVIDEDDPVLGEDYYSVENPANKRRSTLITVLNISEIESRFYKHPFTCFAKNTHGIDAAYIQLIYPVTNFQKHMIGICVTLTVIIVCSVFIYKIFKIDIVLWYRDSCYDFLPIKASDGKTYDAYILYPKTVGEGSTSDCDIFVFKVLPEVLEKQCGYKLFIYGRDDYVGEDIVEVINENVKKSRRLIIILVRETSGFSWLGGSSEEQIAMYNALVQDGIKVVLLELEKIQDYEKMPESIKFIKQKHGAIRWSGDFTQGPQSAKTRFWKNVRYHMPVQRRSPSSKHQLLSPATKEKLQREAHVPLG
# T3: Human IL-1R-I-Fc (Creative BioMart cat. no. IL1RI-771H) (human, UniProt P14778 18-332, limits assumed)
# T3 construct: bought protein; also called hIL-1R-I-Fc; hIL-1RI-Fc
# T3 sequence (looked up): T1 sequence (looked up)
# B1: Z16049-ABD (designed binder)
# chain: AQHDEALEVDAKYAKEVEQAQMEIFSLPNLTRKQYTAFIRKLLDDPSQSSELLSEAKKLNDSQAPKVDYVLAEAKVLANRELDKYGVSDYYKNLINNAKTVEGVKALIDEILAALPYVPG
# B2: Z16050-ABD (designed binder)
# chain: B1 chain with Q19A, S26N, K33R
# B3: Z16058-ABD (designed binder)
# chain: B1 chain with Q19E, S26K
# B4: Z16053-ABD (designed binder)
# chain: B1 chain with V17T, Q19R, S26A
# B5: Z16054-ABD (designed binder)
# chain: B1 chain with V17A, Q19V, Q21Y, M22F, F25Y, S26A
# B6: Z16051-ABD (designed binder)
# chain: B1 chain with Q19S, S26A
# B7: His6-Z16023 (designed binder)
# chain: MGSSHHHHHHLQVDAKYAKEVEEAQMEIFALPNLTRKQYTAFIRKLLDDPSQSSELLSEAKKLNDSQAPKVD
# B8: His6-Z16116 (designed binder)
# chain: B7 chain with E23A, A30G
# B9: His6-Z16065 (designed binder)
# chain: B7 chain with K37R
# B10: His6-Z16301 (designed binder)
# chain: B7 chain with V21I, E23A, A30E
# B11: His6-Z16072 (designed binder)
# chain: B7 chain with E23I, A30E
# B12: His6-Z16245 (designed binder)
# chain: B7 chain with E23T, Q25Y, M26F
# B13: His6-Z16143 (designed binder)
# chain: B7 chain with V21I, E23A, A30R
# B14: His6-Z16255 (designed binder)
# chain: B7 chain with V21T, E23D, Q25Y, F29Y
# B15: His6-Z17274 (designed binder)
# chain: B7 chain with V21I, E23V, Q25Y, F29Y, A30H
# B16: His6-Z16127 (designed binder)
# chain: B7 chain with V21I, E23I, A30G
# B17: His6-Z16378 (designed binder)
# chain: B7 chain with E23S, Q25Y, M26F, A30K
# B18: His6-Z16363 (designed binder)
# chain: B7 chain with E23Q, A30R
# B19: His6-Z16165 (designed binder)
# chain: B7 chain with V21I, E23V, F29Y, A30S, L47F
# B20: His6-Z15961 (designed binder)
# chain: B7 chain with E23T, L47F
# B21: His6-Z15876 (designed binder)
# chain: B7 chain with V21I, E23A, A30G, L47F
# B22: His6-Z15953 (designed binder)
# chain: B7 chain with V21T, E23K
# B23: His6-Z15927 (designed binder)
# chain: B7 chain with V21I, A30Y
# B24: His6-Z15862 (designed binder)
# chain: B7 chain with E23I
# B25: His6-Z16341 (designed binder)
# chain: B7 chain with V21L, E23A, K37R
# B26: His6-Z16117 (designed binder)
# chain: B7 chain with V21I, E23K, M26F, L47F
# B27: His6-Z16219 (designed binder)
# chain: B7 chain with V21I, E23H, M26L, A30S
# B28: His6-Z16169 (designed binder)
# chain: B7 chain with V21T, A30Y, K37R
# B29: His6-Z16097 (designed binder)
# chain: B7 chain with V21T, E23R, A30S
# B30: His6-Z16093 (designed binder)
# chain: B7 chain with V21T, L47F
# B31: His6-Z17280 (designed binder)
# chain: B7 chain with E23Q, Q25Y, M26W, F29Y
# B32: His6-Z16043 (designed binder)
# chain: B7 chain with V21T, A30R, K37R
# B33: His6-Z16377 (designed binder)
# chain: B7 chain with V21T, E23R, A30Y
# B34: His6-Z16681 (designed binder)
# chain: B7 chain with E23Y, Q25Y, M26Y, A30K
# B35: His6-Z16007 (designed binder)
# chain: B7 chain with E23I, A30S, L47F
# Biological target: T1, human IL-1R-I (RnD Systems cat. no. …)
# Assay: Biacore kinetic screening, Z-ABD captured on anti-ABD, 100 nM hIL-1R-I
row,Kd [nM],Binder
1,14,B1
2,13,B2
3,14,B3
4,11,B4
5,29,B5
6,15,B6

# Biological target: T2, IL-1R-I on TF-1 cells
# Assay: cell-based or functional assay
row,"IC50 (nM), TF-1 cell assay [nM]",Binder
1,3.8,B7
2,4.1,B8
3,1.7,B9
4,4.5,B10
5,4.3,B11
6,8.2,B12
7,4.8,B13
8,8.5,B14
9,4.6,B15
10,4.1,B16
11,32.7,B17
12,8.1,B18
13,11.5,B19
14,2.9,B20
15,2.4,B21
16,3.7,B22
17,2.5,B23
18,6.6,B24
19,3.9,B25
20,8.5,B26
21,24.2,B27
22,0.76,B28
23,3.4,B29
24,3.3,B30
25,5.4,B31
26,2.5,B32
27,3.1,B33
28,20.1,B34
29,5.9,B35

# Biological target: T1, human IL-1R-I (RnD Systems cat. no. …)
# Assay: Biacore SPR, hIL-1R-I immobilized, 1:1 model
# Text: One flow cell surface on the chip was activated and deactivated for use as blank during analyte injections.
Kd [nM],koff [s⁻¹],kon [M⁻¹ s⁻¹],Binder
0.29,0.0015,5.3e+06,B7
0.88,0.0023,2.6e+06,B8
0.19,0.0013,6.9e+06,B9
0.66,0.0021,3.1e+06,B10
0.47,0.0022,4.6e+06,B11
1.2,0.0031,2.7e+06,B12
0.53,0.0016,3.1e+06,B13
1,0.0031,3e+06,B14
0.22,0.0024,1.1e+07,B15
0.29,0.0019,6.7e+06,B16
0.55,0.0036,6.6e+06,B17
0.57,0.0018,3.2e+06,B18
1.7,0.0036,2.1e+06,B19
0.46,0.002,4.3e+06,B20
0.62,0.0013,2.1e+06,B21
0.24,0.0015,6e+06,B22
0.51,0.0012,2.4e+06,B23
0.67,0.0019,2.8e+06,B24
0.52,0.0016,3e+06,B25
0.69,0.0027,4e+06,B26
2.2,0.0056,2.5e+06,B27
0.39,0.001,2.6e+06,B28
0.48,0.0015,3.1e+06,B29
0.25,0.0014,5.6e+06,B30
2.2,0.0053,2.4e+06,B31
0.44,0.0011,2.5e+06,B32
0.54,0.0011,2.1e+06,B33
1.4,0.005,3.6e+06,B34
0.92,0.0021,2.3e+06,B35

# Biological target: T3, Human IL-1R-I-Fc (Creative BioMart cat. …)
# Assay: ELISA, hIL-1R-I-Fc titration on Z-ABD
row,EC50 [nM],Binder
1,0.24,B1
2,0.23,B2
3,0.23,B3
4,0.25,B4
5,0.24,B5
6,0.25,B6

# — US20250066451A1 (SWEDISH ORPHAN BIOVITRUM AB PUBL, published 2025)
